In PMC4749642, “Evaluation of anticonvulsant and antinociceptive properties of new N-Mannich bases derived from pyrrolidine-2,5-dione and 3-methylpyrrolidine-2,5-dione” (Naunyn-Schmiedeberg's Archives of Pharmacology, 2015):

Key:
[1] = tested on: voltage-sensitive sodium channel (site 2); settings: [3H]batrachotoxin, rat cerebral cortex, cited from earlier work
[2] = tested on: voltage-sensitive sodium channel (site 2); settings: [3H]batrachotoxin, rat cerebral cortex

Compound	% inhibition of control specific binding ([2]; 10 μM) [%]	% inhibition of control specific binding ([2]; 100 μM) [%]	further results
NC(=O)N1c2ccccc2C=Cc2ccccc21 [Carbamazepine]	–	–	% inhibition of control specific binding ([1]; 10 μM, ref Kamiński et al. [2015b]): 4.6%; % inhibition of control specific binding ([1]; 100 μM, ref Kamiński et al. [2015b]): 17.4%
CC1CC(=O)N(CN2CCN(c3ccc(Cl)c(Cl)c3)CC2)C1=O (centres unmarked) [Compound 12, N-[{4-(3,4-dichlorophenyl)-piperazin-1-yl}-methyl]-3-methylpyrrolidine-2,5-dione]	49.1	85.8	–
O=C1CCC(=O)N1CN1CCN(c2ccc(Cl)c(Cl)c2)CC1 [Compound 23, N-[{4-(3,4-dichlorophenyl)-piperazin-1-yl}-methyl]-pyrrolidine-2,5-dione]	49.4	89.9	–
O=C1NC(=O)C(c2ccccc2)(c2ccccc2)N1 [Phenytoin, reference compound]	–	–	% inhibition of control specific binding ([1]; 10 μM, ref Rybka et al. [2015]): 10.6%; % inhibition of control specific binding ([1]; 100 μM, ref Rybka et al. [2015]): 21.2%

Read-outs that look alike come from different tables or passages of the source.
